According to the supplement of paper PMC10320760:
Single values of this set are uncertain.

B1: Ydj1; a variant is named by its letters at X, in order (parent)
chain: MVKETKFYDILGVPVTATDVEIKKAYRKCALKYHPDKNPSEEAAEKFKEASAAYEILSDPEKRDIYDQFGEDGLSGAGGAGGFPGGGFGFGDDIFSQFFGAGGAQRPRGPQRGKDIKHEISASLEELYKGRTAKLALNKQILCKECEGRGGKKGAVKKCTSCNGQGIKFVTRQMGPMIQRFQTECDVCHGTGDIIDPKDRCKSCNGKKVENERKILEVHVEPGMKDGQRIVFKGEADQAPDVIPGDVVFIVSERPHKSFKRDGDDLVYEAEIDLLTAIAGGEFALEHVSGDWLKVGIVPGEVIAPGMRKVIEGKGMPIPKYGGYGNLIIKFTIKFPENHFTSEENLKKLEEILPPRIVPAIPKKATVDECVLADFDPAKYNRTRASRGGANYDSDEEEQGGEGVQCXXX

Variants of: B1
Experiment: enrichment factor, frequency at 37 °C / frequency at 25 °C (thermotolerance selection) (ratio); higher = more growth at 37 °C, higher likelihood of farnesylation
Conditions: with Saccharomyces cerevisiae ydj1Δ (yWS304); selective temperature 37 °C; reference temperature 25 °C
Protocol: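 Pooled library of all 8,000 Ydj1-CXXX C-terminal motif variants (native CASQ replaced by C + three variable residues, one codon per amino acid) expressed from a CEN plasmid in S. cerevisiae ydj1Δ (yWS304). The library was grown in SC-Ura liquid to A600 ~2 (~8 generations) at permissive 25 °C or selective 37 °C. Reads from 8 and 7 replicates were pooled and variants counted by NGS. Enrichment factor = frequency at 37 °C / frequency at 25 °C, with a +1 correction; it reports Ydj1-dependent thermotolerance, used as a read-out of farnesylation by yeast FTase.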

Row | Variant | enrichment factor
1 | TEL | 0.17
2 | TEM | 1.67
3 | TER | 0.11
4 | TEY | 0.157
5 | TEI | 0.251
6 | TEP | 0.215
7 | TET | 0.416
8 | TEK | 0.137
9 | TEN | 0.303
10 | TEQ | 1.5
11 | TEV | 0.702
12 | TES | 1.22
13 | TEW | 0.315
14 | LFA | 1.16
15 | LFE | 1.78
16 | LFD | 1.91
17 | LFC | 0.116
18 | FFE | 0.884
19 | FFC | 0.604
20 | FFD | 0.88
21 | FFA | 3.47
22 | GEI | 0.192
23 | GEL | 0.27
24 | GEQ | 1.47

Row | Variant | enrichment factor
25 | GEK | 0.162
26 | GEW | 0.111
27 | GET | 0.147
28 | GES | 0.157
29 | GEP | 0.149
30 | GEY | 0.126
31 | GEV | 0.164
32 | GEM | 1.25
33 | GEN | 0.0983
34 | GER | 0.24
35 | WFA | 2.32
36 | WFC | 0.786
37 | WFD | 1.1
38 | RFD | 2.02
39 | RFA | 1.93
40 | RFC | 0.347
41 | DFC | 0.965
42 | DFA | 2.23
43 | DFD | 0.248
44 | CFC | 0.695
45 | CFD | 1.07
46 | CFE | 2.26
47 | CFA | 1.88
48 | HEN | 0.291

Row | Variant | enrichment factor
49 | HEP | 0.228
50 | HES | 0.918
51 | HER | 0.159
52 | HEK | 0.141
53 | HEL | 0.179
54 | HET | 0.474
55 | HEW | 0.29
56 | HEI | 0.454
57 | HEY | 0.136
58 | HEM | 2.31
59 | HEQ | 1.59
60 | HEV | 0.821
61 | KFA | 2.83
62 | KFD | 1.78
63 | KFC | 0.109
64 | KFE | 1.69
65 | VEP | 0.0879
66 | VEQ | 1.37
67 | VET | 1.4
68 | VEL | 0.338
69 | VEM | 2
70 | VES | 1.27
71 | VEW | 0.169
72 | VEY | 0.268

Row | Variant | enrichment factor
73 | VEI | 0.479
74 | VEK | 0.201
75 | VEN | 1.07
76 | VER | 0.163
77 | VEV | 1.26
78 | YFA | 1.35
79 | YFD | 0.83
80 | YFC | 1.71
81 | REQ | 1.1
82 | RES | 1.42
83 | REK | 0.0592
84 | REP | 0.134
85 | REM | 1.28
86 | REL | 0.219
87 | RER | 0.161
88 | REI | 0.141
89 | REV | 0.291
90 | REW | 0.141
91 | RET | 0.369
92 | REY | 0.173
93 | REN | 0.124
94 | DEN | 0.16
95 | DEL | 0.158
96 | DEV | 0.112

Row | Variant | enrichment factor
97 | DEQ | 0.312
98 | DEM | 0.2
99 | DEK | 0.165
100 | DEW | 0.203
101 | DET | 0.395
102 | DES | 0.118
103 | DEP | 0.106
104 | DEY | 0.092
105 | DER | 0.254
106 | DEI | 0.255
107 | DEH | 0.152
108 | IET | 0.963
109 | IES | 0.918
110 | IEQ | 0.867
111 | IEL | 0.0943
112 | IEW | 0.165
113 | IEY | 0.128
114 | IER | 0.128
115 | IEN | 0.308
116 | IEM | 1.26
117 | IEP | 0.167
118 | IEV | 0.679
119 | IEK | 0.151
120 | IEI | 0.18

Row | Variant | enrichment factor
121 | EEN | 0.222
122 | EET | 0.123
123 | EER | 0.228
124 | EEI | 0.191
125 | EEV | 0.204
126 | EEK | 0.16
127 | EEQ | 1.42
128 | EEP | 0.132
129 | EEW | 0.0827
130 | EEY | 0.208
131 | EEL | 0.129
132 | EEM | 1.29
133 | EES | 0.296
134 | PEP | 0.227
135 | PEW | 0.14
136 | PEQ | 1.91
137 | PEL | 0.192
138 | PEN | 0.197
139 | PEI | 0.124
140 | PER | 0.107
141 | PET | 0.273
142 | PEY | 0.139
143 | PEK | 0.0991
144 | PEM | 1.77

Row | Variant | enrichment factor
145 | PES | 1.3
146 | PEV | 0.317
147 | QFE | 2.44
148 | QFC | 0.157
149 | QFD | 1.77
150 | QFA | 1.95
151 | LES | 1.28
152 | LEV | 0.526
153 | LEN | 0.446
154 | LEQ | 1.38
155 | LEY | 0.127
156 | LEP | 0.119
157 | LEW | 0.122
158 | LER | 0.0959
159 | LEM | 1.59
160 | LEL | 0.158
161 | LEK | 0.109
162 | LET | 0.594
163 | LEI | 0.273
164 | MEV | 0.182
165 | MEM | 1.97
166 | MEK | 0.108
167 | MEL | 0.165
168 | MEW | 0.168

Row | Variant | enrichment factor
169 | MEY | 0.177
170 | MES | 1.34
171 | MEN | 0.291
172 | MEI | 0.167
173 | MET | 0.27
174 | MER | 0.135
175 | MEP | 0.096
176 | MEQ | 1.67
177 | MFD | 1.71
178 | MFE | 1.71
179 | MFA | 0.811
180 | MFC | 0.356
181 | VFD | 1.56
182 | VFA | 2.32
183 | VFC | 1.96
184 | TFD | 2.04
185 | TFC | 0.154
186 | IFC | 3.28
187 | IFA | 1.16
188 | IFD | 1.5
189 | IFE | 1.36
190 | EFC | 1.16
191 | EFE | 1.38
192 | EFD | 1.23

Row | Variant | enrichment factor
193 | EFA | 2.32
194 | CEV | 1.06
195 | CEI | 0.757
196 | CEQ | 1.61
197 | CET | 0.931
198 | CER | 0.193
199 | CEM | 1.68
200 | CEW | 0.671
201 | CEN | 0.817
202 | CES | 1.63
203 | CEL | 0.957
204 | CEK | 0.133
205 | CEP | 0.27
206 | CEY | 0.471
207 | GFC | 0.219
208 | GFA | 1.56
209 | GFD | 0.491
210 | GFE | 0.611
211 | SEQ | 1.29
212 | SEP | 0.156
213 | SEM | 2.06
214 | SER | 0.0677
215 | SEY | 0.127
216 | SEL | 0.165

Row | Variant | enrichment factor
217 | SEW | 0.277
218 | SEI | 0.141
219 | SEN | 0.134
220 | SES | 0.928
221 | SEK | 0.112
222 | SET | 0.182
223 | SEV | 0.198
224 | PFC | 1.38
225 | PFA | 1.29
226 | PFE | 1.5
227 | PFD | 1.82
228 | AET | 0.635
229 | AEN | 0.561
230 | AEI | 0.459
231 | AES | 1.38
232 | AEV | 0.907
233 | AEP | 0.0991
234 | AEK | 0.205
235 | AEQ | 1.66
236 | AEL | 0.223
237 | AEY | 0.195
238 | AER | 0.105
239 | AEM | 1.61
240 | AEW | 0.179

Row | Variant | enrichment factor
241 | SFD | 1.25
242 | SFA | 3.14
243 | SFC | 0.618
244 | AFC | 1.31
245 | AFA | 1.51
246 | AFD | 1.81
247 | KEI | 0.201
248 | KEV | 0.16
249 | KEN | 0.153
250 | KEL | 0.211
251 | KEW | 0.172
252 | KEP | 0.203
253 | KEM | 1.77
254 | KES | 1.37
255 | KET | 0.168
256 | KEQ | 1.5
257 | KER | 0.143
258 | KEY | 0.189
259 | KEK | 0.273
260 | YEW | 0.283
261 | YEP | 0.211
262 | YEQ | 2.23
263 | YES | 0.651
264 | YEY | 0.157

Row | Variant | enrichment factor
265 | YEL | 0.363
266 | YEK | 0.175
267 | YEI | 0.365
268 | YEN | 0.11
269 | YEH | 0.144
270 | YEV | 1.13
271 | YER | 0.218
272 | YET | 0.995
273 | YEM | 1.89
274 | NFD | 1.32
275 | NFE | 1.81
276 | NFC | 0.579
277 | NFA | 2.61
278 | HFA | 2.51
279 | HFC | 0.409
280 | HFE | 2.44
281 | HFD | 1.74
282 | QEI | 0.17
283 | QES | 0.958
284 | QEW | 0.271
285 | QEK | 0.0984
286 | QER | 0.129
287 | QEY | 0.113
288 | QEV | 0.339

Row | Variant | enrichment factor
289 | QEM | 2.09
290 | QET | 0.193
291 | QEN | 0.204
292 | QEL | 0.182
293 | QEQ | 1.55
294 | QEP | 0.139
295 | FEI | 1.3
296 | FEQ | 2.01
297 | FEK | 0.0952
298 | FEN | 0.752
299 | FEP | 1.29
300 | FEW | 0.379
301 | FEV | 1.12
302 | FEM | 1.26
303 | FEY | 0.169
304 | FES | 0.845
305 | FEL | 0.48
306 | FET | 1.39
307 | FER | 0.14
308 | WEN | 1.16
309 | WEL | 1.73
310 | WEK | 0.336
311 | WEY | 1.65
312 | WEW | 1.67

Row | Variant | enrichment factor
313 | WEI | 2.07
314 | WEQ | 1.9
315 | WEH | 0.899
316 | WEV | 1.65
317 | WEP | 1.42
318 | WEM | 1.29
319 | WER | 0.238
320 | WES | 1.5
321 | WET | 1.82
322 | NEL | 0.382
323 | NEY | 0.214
324 | NER | 0.157
325 | NEV | 0.165
326 | NEI | 0.121
327 | NEP | 0.152
328 | NEM | 1.9
329 | NEQ | 1.69
330 | NES | 0.506
331 | NEK | 0.222
332 | NEN | 0.127
333 | NEW | 0.199
334 | NET | 0.221
